Consider 56 molecules from paper PMC4336329 (PLoS ONE, 2015).

Molecules are shown by their SMILES. Out of some 310,000 compounds screened, about 14,000 (4.5%) showed an effect of 50% or more. Effects have a minus sign here. The list shows a part of the results.
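Further: peak tail current of the secondary pulse compared with the same well before compound.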

This experiment deals with human ether-à-go-go-related gene (hERG) potassium channel (human, UniProt Q12809). As to the kind of experiment: primary screen, population patch clamp on CHO cells stably expressing hERG.
human ether-à-go-go-related gene (hERG) potassium channel, sequence (Q12809 whole entry, looked up): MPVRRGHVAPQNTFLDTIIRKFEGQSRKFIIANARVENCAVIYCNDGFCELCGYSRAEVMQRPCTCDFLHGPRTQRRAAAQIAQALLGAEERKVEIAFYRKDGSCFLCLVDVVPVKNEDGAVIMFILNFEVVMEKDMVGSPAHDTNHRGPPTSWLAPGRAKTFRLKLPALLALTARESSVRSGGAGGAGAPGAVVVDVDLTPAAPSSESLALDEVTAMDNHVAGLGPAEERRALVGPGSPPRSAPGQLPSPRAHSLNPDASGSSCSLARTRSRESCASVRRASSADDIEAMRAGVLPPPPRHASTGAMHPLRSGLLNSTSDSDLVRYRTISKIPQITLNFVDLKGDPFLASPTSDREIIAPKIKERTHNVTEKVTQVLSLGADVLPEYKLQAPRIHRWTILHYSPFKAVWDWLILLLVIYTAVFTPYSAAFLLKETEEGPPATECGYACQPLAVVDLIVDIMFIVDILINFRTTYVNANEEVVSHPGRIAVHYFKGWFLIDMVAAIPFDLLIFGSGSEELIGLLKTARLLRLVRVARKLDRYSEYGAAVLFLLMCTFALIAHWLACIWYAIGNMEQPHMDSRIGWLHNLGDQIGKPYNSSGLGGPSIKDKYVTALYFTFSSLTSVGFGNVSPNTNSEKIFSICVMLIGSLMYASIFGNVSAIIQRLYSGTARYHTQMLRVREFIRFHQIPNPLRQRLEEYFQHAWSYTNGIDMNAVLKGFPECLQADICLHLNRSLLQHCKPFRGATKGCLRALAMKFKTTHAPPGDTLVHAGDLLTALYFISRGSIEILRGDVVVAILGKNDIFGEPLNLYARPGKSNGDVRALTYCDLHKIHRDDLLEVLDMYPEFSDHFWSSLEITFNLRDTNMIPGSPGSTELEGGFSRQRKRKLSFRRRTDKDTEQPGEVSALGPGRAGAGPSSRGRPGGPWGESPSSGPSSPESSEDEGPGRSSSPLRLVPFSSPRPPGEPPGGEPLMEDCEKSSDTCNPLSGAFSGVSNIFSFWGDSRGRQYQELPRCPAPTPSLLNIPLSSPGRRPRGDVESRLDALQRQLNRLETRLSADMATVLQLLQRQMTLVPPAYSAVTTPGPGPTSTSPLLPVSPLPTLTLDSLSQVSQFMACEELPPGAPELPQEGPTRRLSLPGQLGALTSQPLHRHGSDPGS
Turning to `Cc1ccc(C(=O)COC(=O)c2cccc([N+](=O)[O-])c2)s1`, the “hERG current change (%, negative = inhibition) at 10uM” value came out at 4.02%.

Consider `COc1ccc(C2N=C(c3ccccc3)NO2)cc1OC` (centres unmarked), for which the “hERG current change (%, negative = inhibition) at 10uM” value worked out at 9.76%. In the case of `CCC(=O)N1CCc2cc(S(=O)(=O)CCC(=O)N(C)c3ccc(OC)cc3)ccc21`, the “hERG current change (%, negative = inhibition) at 10uM” value is -7.43%. The result for `COC(=O)c1ccc(CSc2ccc(S(=O)(=O)N3CCCCC3)cn2)cc1` reads 18.3%. The same measure for `CCC1=NN(C(=O)C(=O)Nc2ccc(Br)cc2)C(O)(C(F)(F)F)C1` (centres unmarked): 2.65%; for `CCOC(=O)CC1COCCN1Cc1cn(C)nc1-c1ccccc1F` (centres unmarked): 0.506%; for `CCOC(=O)c1c(C#N)cnn1-c1ccc(C)cc1`: 9.18%. Take `CCCCN(C)CCCNC(=O)c1cn(CC)c2ccc(S(=O)(=O)N3CCOCC3)cc2c1=O`: the “hERG current change (%, negative = inhibition) at 10uM” value turned out to be 10.3%.

As for `C=CCn1c(SCC(=O)Nc2nccs2)nnc1-c1ccco1`, the “hERG current change (%, negative = inhibition) at 10uM” value was -48.9%. As to `NC(=O)c1ccc(-n2c(CCC(=O)O)ccc2-c2cccs2)cc1`, the “hERG current change (%, negative = inhibition) at 10uM” value came to 20.2%.

`COc1ccc(/C=C2\Sc3ccc(C(=O)NCCN4CCCCCC4)cc3N(C)C2=O)cc1`: the “hERG current change (%, negative = inhibition) at 10uM” value is on record as -42.6%. For `CCc1ccc(C(=O)NC(C(=O)O)C(C)C)cc1` (centres unmarked), the “hERG current change (%, negative = inhibition) at 10uM” value was -4.59%. The result for `CCOc1ccccc1Nc1ncnc2c1cnn2-c1ccccc1` reads -1.7%; that for `O=C(CCN1C(=O)c2ccccc2C1=O)Nc1ccccc1C(F)(F)F`, -3%; that for `O=C(Nc1ccc(F)cc1F)C1CCCN1S(=O)(=O)c1ccc(-c2ccc(=O)[nH]n2)s1` (centres unmarked), -33.5%. In the case of `COc1ccc(-n2nc(C(=O)NCc3ccco3)c3c4ccccc4n(C)c3c2=O)cc1Cl`, the “hERG current change (%, negative = inhibition) at 10uM” value was 9.8%. The same measure for `CCC(c1nnnn1C(C)C)N1CCN(C2CCCC2)CC1.Cl` (centres unmarked): -7.11%; for `CCN1C(=O)/C(=C\c2ccncc2)SC1=Nc1ccc(C)c(C)c1`: 9.65%; for `O=S(=O)(Oc1ccc(C(=S)N2CCOCC2)cc1)c1ccc(Cl)cc1`: -0.0264%. The result for `COc1ccc(N2CCN(C3CCCN(Cc4ccc(F)c(F)c4)C3)CC2)cc1` (centres unmarked) reads -64.6%; that for `COc1ccc(C(=O)NCC(=O)OCC(=O)c2cc(OC)c(OC)c(OC)c2)cc1OC`, 28.5%. Turning to `COc1ccc(C2SCC(=O)N2c2nnc(C34CC5CC(CC(C5)C3)C4)s2)cc1` (centres unmarked), the “hERG current change (%, negative = inhibition) at 10uM” value turned out to be 1.93%.

Regarding `CCOC(=O)CSC1=C(C#N)C(c2ccc3c(c2)OCO3)CC(=O)N1` (centres unmarked), the “hERG current change (%, negative = inhibition) at 10uM” value turned out to be 4.44%. Consider `COc1cccc(CSc2nccn2C)c1`, for which the “hERG current change (%, negative = inhibition) at 10uM” value came out at 16.8%. The result for `NC(=O)c1ccc(NC(=O)COC(=O)c2ccccc2Nc2ccccc2)cc1` reads 3.18%. The result for `CCCN1Cc2cccc(C(=O)Nc3ccc(C)cc3)c2C1=O` reads 22.6%. Take `CN(C)c1ccc(/C=C(\C#N)C(=O)Nc2nc3c(s2)CCN(Cc2ccccc2)C3)cc1`: the “hERG current change (%, negative = inhibition) at 10uM” value is recorded as 12.1%.

With `Cn1c(Cn2c3ccccc3c3ccccc32)n[nH]c1=S`, the “hERG current change (%, negative = inhibition) at 10uM” value is reported as 2.11%. Take `NC(=O)c1ccc(-c2nnn(CC(=O)Nc3cccc(S(=O)(=O)N4CCCC4)c3)n2)cc1`: the “hERG current change (%, negative = inhibition) at 10uM” value was 4.54%. For the molecule `Cc1cc(C)n(-c2ccc(C(=O)NCCCN3CCOCC3)cc2)n1`, the “hERG current change (%, negative = inhibition) at 10uM” value was determined as 19.7%. Regarding `O=C(COC(=O)c1ccccc1O)NCC1COc2ccccc2O1` (centres unmarked), the “hERG current change (%, negative = inhibition) at 10uM” value worked out at 21.3%. The same measure for `CCOc1ccc(C(=O)COC(=O)Cc2n[nH]c(=O)c3ccccc23)cc1`: -14.4%. For `O=C(NCCN1CCOCC1)c1ccc(Cl)cc1[N+](=O)[O-]`, the “hERG current change (%, negative = inhibition) at 10uM” value worked out at 7.54%.

Consider `Cc1nc(N2CCN(C(=O)COc3ccccc3)CC2)c2c(C)c(C)sc2n1.Cl`, for which the “hERG current change (%, negative = inhibition) at 10uM” value is -69.3%. For `O=C(CN1C(=O)COc2ccccc21)N1CCCC1`, the “hERG current change (%, negative = inhibition) at 10uM” value stood at 11.4%. The same measure for `CC(C)OC(=O)c1c2c(n3ccccc13)C(=O)c1ccccc1C2=O`: 5.73%.

For `CCCC(=O)c1ccc2c(c1)OCCO2`, the “hERG current change (%, negative = inhibition) at 10uM” value is on record as 12.2%. The result for `Cc1ccc(C2/C(=C(/O)c3ccc(Cl)cc3)C(=O)C(=O)N2CC2CCCO2)o1` (centres unmarked) reads -0.97%; that for `COc1ccc(CC(=O)NCc2nnc(SCC(=O)Nc3ncc(C)s3)n2C)cc1`, 9.69%. On to `CC1CCCN(C(=O)Cn2nnc(-c3ccccc3F)n2)C1` (centres unmarked), for which the “hERG current change (%, negative = inhibition) at 10uM” value turned out to be 13.8%. Consider `COc1cc(S(=O)(=O)N2CCOCC2)cc(C(=O)c2nccn2C)c1OC`, for which the “hERG current change (%, negative = inhibition) at 10uM” value was 14.8%. Turning to `Cc1ccc(C)c(NC(=O)CN(C)C(=O)CSCc2c(C)noc2C)c1`, the “hERG current change (%, negative = inhibition) at 10uM” value is given as -7.38%. The same measure for `COc1ccc(C(=O)Nc2c(N)nc(SCC(=O)N3CCC(C)CC3)[nH]c2=O)cc1OC`: 6.86%; for `COc1cccc(N2CCN(C(=O)CN(C)S(=O)(=O)c3ccc4c(c3)c(=O)n(C)c(=O)n4C)CC2)c1`: -10.8%; for `Cc1cccc(N2Cc3ccc(Br)cc3C2)c1`: -2.05%. Turning to `COc1ccccc1-c1cc(C(=O)N2CCc3ccccc3C2)c2ccccc2n1`, the “hERG current change (%, negative = inhibition) at 10uM” value is on record as 0.422%. The same measure for `NC(=O)C1CCN(C(=O)c2cc3ccccn3n2)CC1`: 2.6%; for `O=C(NCCCCCCNC(=O)c1ccncc1)c1ccncc1`: 6.29%; for `COC(=O)c1cc(-c2ccc(Cl)cc2)n(-c2ccc(S(N)(=O)=O)cc2)n1`: -30.6%. The result for `Cc1sc(N/N=C/c2cc([N+](=O)[O-])ccc2O)nc1-c1ccccc1` reads 13.9%; that for `CCC(Oc1ccccc1F)C(=O)NCCN1CCOCC1` (centres unmarked), 2.26%; that for `COc1ccc(-c2ccc(OC)c([C@H]3[C@H]4C=CC[C@@H](C)[C@@H]4C(=O)N3Cc3ccccc3)c2)cc1`, 8.91%. The same measure for `COc1cc(/C=C/c2nc(-c3ccccc3O)n[nH]2)cc(OC)c1OC`: -5.02%; for `O=C(CSc1n[nH]c(-c2ccco2)n1)Nc1ccccc1Cl`: 8.27%. `O=c1cnnc(Nc2cccc(C(F)(F)F)c2)[nH]1`: the “hERG current change (%, negative = inhibition) at 10uM” value stood at 12%.

As to `CCOC(=O)c1ccc(CNCc2ccc(Br)cc2)cc1`, the “hERG current change (%, negative = inhibition) at 10uM” value is -39.7%.
